Among all 420,000 compounds or so, about 64,000 (15%) were called active. This list was built around the results that the source calls inconclusive (neither active nor inactive); the mix of calls is not that of the screen. Calls come from the whole dose curve; as a rule, active = well fitted inhibition curve with a large enough effect; inconclusive = small, poorly fitted or top-dose-only effect; inactive = flat fitted curve, though single readings scatter. Potencies of inconclusive entries are left out as doubtful fits.
Experiment: qHTS for Inhibitors of human tyrosyl-DNA phosphodiesterase 1 (TDP1): qHTS in cells in absence of CPT; note: nearly all actives have a fitted effect of over 55% in size
Details: DT40 Tdp1-/- hTDP1 cells, no CPT, ATP luminescence, 48 h; activity change, negative = growth inhibition: at 46.2 µM (top of the series) unless noted
How it was run: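 Cells were dispensed at 400 per well, compounds added by pin tool, plates incubated ≥48 hr at 37 °C, then CellTiter-Glo added for 30 min at room temperature before luminescence reading. Line: DT40 Tdp1-/- complemented with hTDP1; camptothecin omitted.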
% is set by controls: 0 for no effect and ±100 for the full control effect; potency is the fitted concentration of half-maximal effect; tags give direction and shape of the fitted curve.

| SMILES | Potency | activity change, negative = growth inhibition |
| --- | --- | --- |
| O=c1c2c([nH]c3ccccc13)CCCCCC2 | active: 16.4 µM | – |
| Cc1ccc(C(=O)c2cn(CC(=O)NC3CCCCC3)c3nc(C)ccc3c2=O)cc1 | inconclusive [inhibitor, single point] | – |
| COc1cc(-c2nc(Cn3nnc(C(=O)Nc4ccccc4)c3C)c(C)o2)cc(OC)c1OC | active: 25.9 µM | – |
| CCOC(=O)c1sc(NC(=O)c2cc(-c3ccccc3)nc3ccccc23)c(C#N)c1C | active: 5.8 µM | – |
| COc1ccc2[nH]c(=O)c(CN(c3ccccc3)S(=O)(=O)c3ccccc3)cc2c1 | active: 20.6 µM | – |
| Cc1ccc(CNC(=O)c2cccn2-c2nnc(N3CCCCC3)s2)cc1 | active: 23.1 µM | – |
| COc1ccc(-c2ccccc2)cc1NC(=O)[C@@H]1O[C@H](CO)[C@H](O)[C@H](O)[C@H]1O | inactive | – |
| O=C(Nc1cc(C(F)(F)F)ccc1Cl)C(Sc1ccccn1)c1ccccc1 (stereo not drawn) | inconclusive [inhibitor, single point] | – |
| Clc1ccc(Oc2cccc(/C=N/n3cnnc3)c2)cc1 | inconclusive [inhibitor, single point] | – |
| COc1ccc(/C=N/NC(=O)CCC(=O)Nc2ccc(Br)cc2)c(OC)c1 | inconclusive [inhibitor, single point] | – |
| Cc1ccc(S(=O)(=O)N2CCCC2)s1 | inactive | – |
| C=CCN1CC(c2nc3ccccc3n2Cc2cccc3ccccc23)CC1=O (stereo not drawn) | inconclusive [inhibitor, single point] | – |
| O=C(NNC(=O)C1CC=CCC1)c1ccccc1O (stereo not drawn) | inconclusive [inhibitor, single point] | – |
| CN(C)CCN(Cc1ccccc1)S(=O)(=O)c1ccc2[nH]c(=O)ccc2c1 | inactive | – |
| COc1cc(-c2nnc3sc(-c4ccncc4)nn23)cc(OC)c1OC | inactive | – |
| CC1=C(/C=C/C(C)=C/C=C/C(C)=C/C(=O)O)C(C)(C)CCC1O (stereo not drawn) | active: 20.6 µM | – |
| C=CCn1c(=O)c2ccccc2n2c(SCc3c(C(=O)OCC)oc4ccccc34)nnc12 | inconclusive [inhibitor, single point] | – |
| COc1cccc(CN(C)C(=O)c2ccc(COc3ccc(Cl)cc3)cc2)c1OC | inconclusive [inhibitor, single point] | – |
| COc1ccc(Br)cc1CN1CCN(c2ncccn2)CC1 | inconclusive [inhibitor, single point] | – |
| Cc1c(NC(=O)c2ccc(NC(=O)C3CC3)cc2)cccc1C(=O)O | inactive | – |
| Cn1c(CSCc2ccc(Cl)cc2)n[nH]c1=S | inactive | – |
| O=C(c1cccc2ccccc12)C1CCCN(C(=O)CCCn2cncn2)C1 (stereo not drawn) | active: 16.4 µM | – |
| Cc1ccc(NC(=O)/C(=C/c2cccs2)NC(=O)c2ccco2)c(C)c1 | inactive | – |
| COc1ccc(CNC(=O)[C@H](C)NC(=O)N2CCn3c2nc2ccccc23)cc1 | inconclusive [inhibitor, single point] | – |
| CCN(CC)CCN(C(=O)c1ccc2c(c1)CCCC2)c1nc2ccc(F)cc2s1 | inconclusive [inhibitor, partial curve] | – |

| SMILES | Potency | activity change, negative = growth inhibition |
| --- | --- | --- |
| CC12CC(NC(=O)N1c1cccc(C(=O)NCc3ccc4c(c3)OCO4)c1)c1cc(Cl)ccc1O2 (stereo not drawn) | active: 18.4 µM | – |
| COc1ccc(OCCSc2nnc(C)n2-c2ccccc2)cc1 | active: 25.9 µM | – |
| CCCn1c2ccccc2c2nnc(SCc3[nH]c(=O)[nH]c3C(=O)CCCCC(=O)OCC)nc21 | inconclusive [inhibitor, single point] | – |
| COc1cc(O)c2c(c1)OC(c1ccc(O)cc1)CC2=O (stereo not drawn) | active: 16.4 µM | – |
| Cc1ccccc1/C=N/Nc1ccnc2cc(Cl)ccc12 | inconclusive [inhibitor, single point] | – |
| Cc1csc(NC(=O)CCCSc2nc3ccccc3s2)n1 | inconclusive [inhibitor, single point] | – |
| CC1=C(C(=O)N(C(C)C)C(C)C)CC(CC(=O)NCCCCc2ccccc2)C(=O)N1CCC1=CCCCC1 (stereo not drawn) | inconclusive [inhibitor, single point] | – |
| CCOC(=O)COc1ccc2c(C)c(CCN(CC)CC)c(=O)oc2c1Cl | inconclusive [inhibitor, single point] | – |
| CCOC(=O)N1CCN(C(=O)c2ccc3c(c2)N(CC)CCS3)CC1 | inconclusive [inhibitor, single point] | – |
| COCCCNC(=O)CN(CCc1ccccc1)S(=O)(=O)c1ccc(C)cc1 | inconclusive [inhibitor, single point] | – |
| CC(=O)c1ccc(N2CCN(S(=O)(=O)c3ccc4c5c3CC(=O)N5CC(C)S4)CC2)cc1 (stereo not drawn) | active: 20.6 µM | – |
| CCC(C)(C)C(=O)Nc1cc([N+](=O)[O-])ccc1Cl | inactive | – |
| CCC(c1nnnn1CS(=O)(=O)c1ccc(C)cc1)N1CCC(C(N)=O)CC1 (stereo not drawn) | inactive | – |
| O=C(Nc1nc2ccc(S(=O)(=O)N3CCCC3)cc2s1)c1ccccn1 | active: 2.91 µM | – |
| Cc1cc(C)n2nc(C(=O)N3CCCC(N4CCN(c5ccccc5C)CC4)C3)cc2n1 (stereo not drawn) | inconclusive [inhibitor, single point] | – |
| O=C1Nc2ccccc2/C1=C/c1cnc(-c2ccccc2)[nH]1 | inconclusive [inhibitor, single point] | – |
| CC1CN(CCCCOc2ccc(C(C)C)cc2)CC(C)O1 (stereo not drawn) | inactive | – |
| CC(=O)c1cn(-c2ccc(Cl)cc2)c(=O)n(Cc2ccc(Br)cc2)c1=O | inconclusive [inhibitor, partial curve, poor fit] | – |
| CCOc1ccc(Nc2nc(N3CCCCC3)nc(N3CCCCC3)n2)cc1 | inconclusive [inhibitor, partial curve] | – |
| COc1cccc(-n2cc(C(=O)NCCc3ccc(C)cc3)c3ccccc3c2=O)c1 | active: 10.3 µM | – |
| C[C@H](NC(=O)c1nc[nH]c1C(=O)N1CCN(c2ccccc2)CC1)C(=O)OC(C)(C)C | inactive | – |
| Cc1cc(Cl)nc2c(C(C)C)cccc12 | inconclusive [inhibitor, single point] | – |
| COc1ccc(-n2nc(C(=O)NCC(=O)N3CCN(c4ccccn4)CC3)c3ccccc3c2=O)cc1Cl | active: 11.6 µM | – |
| COc1cccc(CNc2nc(NCC3CC3)nc3ccsc23)c1 | active: 2.06 µM | – |
| COc1ccc(CN2CC(=O)N(c3cc(Cl)ccc3OC)C2=S)cc1OC | inconclusive [inhibitor, partial curve, poor fit] | – |

| SMILES | Potency | activity change, negative = growth inhibition |
| --- | --- | --- |
| Cc1nc2cc(F)ccc2n1C1CCN(C(=O)c2c(F)cccc2F)CC1 | active: 20.6 µM | – |
| Cc1nc2nc(SCC(=O)C(C)(C)C)[nH]c2cc1Br | – | inconclusive: -35.2% [inhibitor] |
| NS(=O)(=O)c1cccc(NC(=O)COC(=O)CSCc2ccccc2)c1 | inactive | – |
| Cc1ccccc1OCCNC(=S)Nc1ccccc1 | active: 14.6 µM | – |
| CCCCN(C)S(=O)(=O)c1ccc(C(=O)Nc2sc3c(c2C(N)=O)CC(C)(C)NC3(C)C)cc1 | inconclusive [inhibitor, single point] | – |
| NC(=O)CSc1nnc(NC(=O)c2ccc(S(=O)(=O)N3CCCCC3)cc2)s1 | inconclusive [inhibitor, single point] | – |
| CC(C)CCNC(=O)C(c1ccco1)N(Cc1cccs1)C(=O)Cn1nnc2ccccc21 (stereo not drawn) | inconclusive [inhibitor, single point] | – |
| CC(=O)c1sc(NCc2ccc(C)cc2)nc1C | inactive | – |
| O=C(CSc1nc2ccccc2n1CC(=O)N1CCCC1)Nc1ccc2c(c1)OCO2 | inconclusive [inhibitor, single point] | – |
| Nn1c(Cc2cccc3ccccc23)nnc1SCCOc1ccc(Br)cc1 | inconclusive [inhibitor, single point] | – |
| COc1ccc(/C=N/NC(=O)c2c(C)n(C)c3ccc(OC)cc23)c(OC)c1 | inconclusive [inhibitor, single point] | – |
| O=C(OCc1nc2ccccc2[nH]1)C1CCCCC1 | inactive | – |
| CCCCC(=O)N(C)c1c(CC)nc2c(OCC(=O)c3ccc(F)cc3)cccn12 | inconclusive [inhibitor, single point] | – |
| CC(C)CCNC(=O)C(C)N(Cc1ccc(F)cc1)C(=O)c1ccc(CN2CCOCC2)o1 (stereo not drawn) | inactive | – |
| Cc1onc(-c2c(Cl)cccc2Cl)c1C(=O)N1CCN(Cc2ccccc2)CC1 | inconclusive [inhibitor, single point] | – |
| CC(=O)Nc1ccc(OCc2ccc(S(=O)(=O)Cc3ccccc3)cc2)cc1 | inconclusive [inhibitor, full curve] | – |
| Cc1ccc(S(=O)(=O)Nc2ccc(F)cc2)cc1C(=O)N1CCOCC1 | – | inconclusive: -36.8% [inhibitor] |
| CCCCCc1nc(N)c(C#N)c(-c2ccco2)c1CCCC | inconclusive [inhibitor, single point] | – |
| O=C(Nc1ccc2c(c1)OCO2)N1CCN(c2ncccn2)CC1 | inactive | – |
| CCN(Cc1ccccc1)C(=O)Cn1c(=O)n(-c2ccc(Cl)cc2)c(=O)c2c(C)c(C(=O)N(C)C)sc21 | inconclusive [inhibitor, partial curve] | – |
| Cc1c(CCC(=O)NCc2cccc(Cl)c2)c(=O)oc2c(C)c(O)ccc12 | inactive | – |
| Cc1cc(C)n2nc(N)c(N=Nc3cccc(Cl)c3)c2n1 | inconclusive [inhibitor, single point] | – |
| O=C(c1cc(S(=O)(=O)N2CCN(c3ccccc3)CC2)ccc1Cl)N1CCCC(C(F)(F)F)C1 (stereo not drawn) | inconclusive [inhibitor, single point] | – |

Source: PubChem BioAssay AID686978 (National Center for Advancing Translational Sciences (NCATS), 2013)
